Whole data set: some 33,000 sequences, median “E-score (-0.5 to 0.5)” near -0.054, cut for the highest 2% near 0.39. The list shows a part of the results.
Molecular target: Ylr278c (UniProt Q05854)
Test: PBM E-score (8-mer binding enrichment) (E-score (-0.5 to 0.5)); higher = stronger / more preferred TF binding; most listed sequences are background and not binding sites
Settings: protein concentration: 200 nM; construct: GST-DNA-binding domain
Experimental: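 Universal 'all 10-mer' protein binding microarrays (Agilent AMADID 015681) probed with GST-tagged S. cerevisiae TFs (full-length or DBD) made by in vitro transcription/translation (PURExpress), about 100-200 nM. Bound TF was detected with fluorescent anti-GST. Each ungapped 8-mer (which stands for itself and its reverse complement) is scored by the PBM enrichment score (E-score), a modified Wilcoxon-Mann-Whitney statistic from -0.5 to +0.5, computed with the Universal PBM Analysis Suite. Scale: above 0.35 generally sequence-specific binding.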

| Sequence | PBM E-score |
| --- | --- |
| GTTGAAAA | -0.0172 |
| CCGTCTAA | 0.211 |
| CTGTAAGA | -0.123 |
| GAATTGGC | -0.141 |
| ATAAACAT | 0.00469 |
| GTATGCAA | -0.126 |
| ACCGTGTA | -0.233 |
| CAATCCAC | -0.122 |
| TAAGCTGA | -0.00468 |
| AACCGGTA | 0.22 |
| TAACCTAA | -0.173 |
| CTGAAGAA | -0.122 |
| CTCACCAC | -0.0698 |
| TCATATAA | -0.21 |
| TAAATTCA | -0.182 |
| CCACCAGA | -0.241 |
| GTACATCA | -0.00512 |
| ATCGAATA | -0.242 |
| AGCTGCCT | -0.251 |
| CTCTAGAA | -0.299 |
| GGGAGAGA | -0.201 |
| CCTTGGGC | -0.0153 |
| AGCTTTAG | -0.285 |
| ACGGTCCG | 0.299 |
| GGGCACAA | -0.108 |

| Sequence | PBM E-score |
| --- | --- |
| GTCGAAGA | -0.091 |
| CGACGTAC | -0.084 |
| CGTAGACG | -0.0304 |
| AACAACTC | -0.15 |
| CGCCCTAC | -0.0948 |
| GCGTGTAA | -0.192 |
| CCCATTAG | -0.353 |
| ATATGAGA | -0.0316 |
| ACTAATTG | -0.0779 |
| GAACGTGC | -0.0528 |
| ACGTCGAG | -0.235 |
| GAGAGTGC | -0.226 |
| CGTGCAAA | -0.198 |
| GGCAAACA | 0.0472 |
| CCAGATCC | -0.0138 |
| ACGAAGAG | -0.128 |
| AGAGCTAA | -0.171 |
| CCGGATGC | 0.358 |
| AAGGAGAA | -0.0157 |
| ATACTCTG | 0.0255 |
| ATAGTTGA | -0.0829 |
| ACCCAACA | -0.0515 |
| CTTGATTC | -0.101 |
| ATCTAATC | 0.0282 |
| ACAGAAGG | -0.159 |

| Sequence | PBM E-score |
| --- | --- |
| CTTGAGTA | 0.11 |
| CTAGTAAG | -0.129 |
| ACGCTACT | 0.0556 |
| ATTTATAA | 0.0967 |
| CAGGCAGC | -0.08 |
| AGATCATC | -0.198 |
| ACAGCCTG | -0.23 |
| CGGCACAC | 0.148 |
| CATGATGG | -0.225 |
| GAAGCAGC | -0.143 |
| AGGTAGCC | -0.194 |
| CATCGGCC | 0.249 |
| CATATTGC | -0.0666 |
| ATTGTTGA | -0.161 |
| AAGTAGTG | -0.172 |
| ATAACACA | -0.12 |
| ATGCAAGC | -0.0679 |
| GGTAGCAA | -0.331 |
| AGTTAGAC | -0.0203 |
| ATAGATCA | -0.105 |
| AGTCAGAA | -0.148 |
| CTGGCAAC | -0.14 |
| TATCTAGA | -0.325 |
| AACGGACT | 0.328 |
| ACGGCACA | -0.0496 |

| Sequence | PBM E-score |
| --- | --- |
| ACATCCAA | -0.151 |
| GTCCTCCA | -0.114 |
| GTTTATTA | 0.0781 |
| ATCGGAAG | 0.332 |
| TAATAGTA | 0.0651 |
| CCTAGGAG | -0.0413 |
| GGGCGGAA | 0.364 |
| CCGATCAA | 0.19 |
| GGATGAAC | -0.021 |
| CCCTAAAA | -0.105 |
| GTCGGCCA | 0.0233 |
| ACCAAGCG | -0.0326 |
| CCAGACTA | -0.258 |
| TACATGTA | 0.00055 |
| CCCCCCAC | -0.329 |
| CCAATTAG | -0.093 |
| ATGGGACC | -0.0947 |
| AGTAACAC | -0.00143 |
| CTCGGGAA | 0.201 |
| CTAGCGCA | -0.163 |
| CAGAGCTA | -0.286 |
| AAAAGATT | 0.0249 |
| CGCACAAG | -0.0172 |
| CAATACAA | -0.0663 |
| GGTGCCTA | -0.116 |

| Sequence | PBM E-score |
| --- | --- |
| CACATTTC | 0.2 |
| CAGGGAGC | -0.108 |
| CATAACTA | -0.0216 |
| GAGGAGAA | -0.0438 |
| CGGGTACG | 0.0859 |
| CTTAGCCA | -0.122 |
| CTCAGTGC | 0.0361 |
| ACTATTTC | 0.0859 |
| ACCCCCCG | 0.219 |
| GACTAGTA | -0.181 |
| CACTGTCG | 0.025 |
| GGCCAGCC | -0.182 |
| ACAAGCTC | 0.0206 |
| CGAAGGAC | 0.111 |
| ATTTATTA | 0.0692 |
| TTTGAAAA | -0.139 |
| AATCAGAA | 0.00389 |
| ATCTCCAT | 0.115 |
| AATTTGAG | -0.15 |
| GGACTGAC | -0.0427 |
| TGGACAAA | -0.0419 |
| CCACTGAC | -0.217 |
| CCGTTTCG | 0.141 |
| AATTCGAC | -0.32 |
| ACAGTTCG | 0.175 |

| Sequence | PBM E-score |
| --- | --- |
| CGCACCGA | 0.0664 |
| GATATCAC | -0.0631 |
| CGTTGCAC | 0.0328 |
| CTTGTGCA | -0.101 |
| AGAGCGTA | -0.0109 |
| TACGATGA | -0.16 |
| ACCCTACC | -0.122 |
| CCTGTAGC | -0.21 |
| CTCTGGGC | -0.104 |
| GCCTTAAC | -0.258 |
| AGGGGTAA | -0.236 |
| AACACCGG | 0.411 |
| CGAGGCGC | 0.0675 |
| AACCGGGG | 0.321 |
| AATGACGC | -0.18 |
| GACGCGCA | -0.033 |
| AGTGAGCA | -0.231 |
| ATCGAGAG | -0.127 |
| CGACGCGC | 0.21 |
| TATCATAA | -0.126 |
| CGAACCGC | 0.214 |
| CGAATTGA | -0.0135 |
| GATTGCAC | 0.0435 |
| CTCCACCC | -0.105 |
| TGTGAAAA | -0.163 |

| Sequence | PBM E-score |
| --- | --- |
| ACATATAG | 0.032 |
| AAGGAACT | -0.0853 |
| GATCAGGA | -0.121 |
| GATAGATA | -0.0448 |
| AAGATGGT | -0.0478 |
| ACAGGACT | -0.0279 |
| ACGTAAAG | -0.189 |
| AGTATTGA | -0.146 |
| CCTCTGCG | -0.125 |
| AAACGACA | -0.14 |
| CGATTTTC | 0.153 |
| ACGCGTCG | 0.183 |
| CGCGTGTA | 0.00891 |
| CCTAGTCC | 0.0197 |
| TCTGTACA | -0.0142 |
| AGATCTGA | -0.0169 |
| AAGGCGGG | 0.0319 |
| CTCAGCCC | -0.249 |
| GTCGCTCA | -0.29 |
| TCCTTCAA | -0.0355 |
| ACGATGTG | -0.166 |
| TCCATCCA | -0.252 |
